Measured values reported in PMC4792416.
Results are given in words; binding and its absence hold for the method and conditions named. For some assays here: In cells and extracts the contact can be indirect. Some results given as binding are weak or reduced against the parent protein; the word gives no strength. Sequences can lack the tags named with a protein. Each block holds one molecule with its values, some of them ahead of it.

Amino acid sequences for entries named in this document (tags omitted).
UniProt Q94BT6: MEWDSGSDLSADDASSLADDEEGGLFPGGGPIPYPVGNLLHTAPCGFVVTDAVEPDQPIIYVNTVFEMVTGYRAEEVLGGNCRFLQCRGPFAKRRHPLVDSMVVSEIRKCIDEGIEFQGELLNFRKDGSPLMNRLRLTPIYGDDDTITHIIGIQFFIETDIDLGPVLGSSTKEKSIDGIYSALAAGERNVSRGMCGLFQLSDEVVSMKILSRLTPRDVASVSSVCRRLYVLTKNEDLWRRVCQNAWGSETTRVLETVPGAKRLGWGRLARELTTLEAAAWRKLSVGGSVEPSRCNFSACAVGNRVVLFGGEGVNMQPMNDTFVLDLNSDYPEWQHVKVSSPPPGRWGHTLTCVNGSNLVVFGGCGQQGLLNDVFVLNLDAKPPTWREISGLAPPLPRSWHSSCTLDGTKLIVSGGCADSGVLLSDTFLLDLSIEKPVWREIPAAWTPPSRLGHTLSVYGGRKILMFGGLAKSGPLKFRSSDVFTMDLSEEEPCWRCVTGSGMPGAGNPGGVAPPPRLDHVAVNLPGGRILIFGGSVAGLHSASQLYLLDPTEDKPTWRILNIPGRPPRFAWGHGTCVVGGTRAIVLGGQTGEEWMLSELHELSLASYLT
UniProt P43297: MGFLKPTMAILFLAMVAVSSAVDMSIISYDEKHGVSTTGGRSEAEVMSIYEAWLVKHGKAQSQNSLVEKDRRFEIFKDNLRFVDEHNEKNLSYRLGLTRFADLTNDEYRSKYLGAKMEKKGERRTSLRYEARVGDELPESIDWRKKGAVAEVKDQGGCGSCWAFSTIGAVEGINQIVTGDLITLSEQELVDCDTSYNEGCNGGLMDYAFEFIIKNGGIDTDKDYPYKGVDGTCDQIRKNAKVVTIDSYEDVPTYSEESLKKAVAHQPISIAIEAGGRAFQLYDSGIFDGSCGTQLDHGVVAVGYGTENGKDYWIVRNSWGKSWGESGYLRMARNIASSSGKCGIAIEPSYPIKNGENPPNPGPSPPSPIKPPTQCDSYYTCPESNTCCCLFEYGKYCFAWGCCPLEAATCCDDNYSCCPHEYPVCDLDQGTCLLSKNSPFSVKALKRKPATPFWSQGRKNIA

What was measured:
[1] = target: T1, Timing of CAB expression 1 (TOC1), GFP-tagged (Arabidopsis thaliana) (UniProt Q9LKL2); assay: co-IP; GFP-tagged and HA-tagged proteins co-expressed with p19 in N. benthamiana leaves by agroinfiltration; anti-GFP antibody on protein A Sepharose, 2 h at 4°C; co-IP products detected with anti-HA antibody
T1 sequence: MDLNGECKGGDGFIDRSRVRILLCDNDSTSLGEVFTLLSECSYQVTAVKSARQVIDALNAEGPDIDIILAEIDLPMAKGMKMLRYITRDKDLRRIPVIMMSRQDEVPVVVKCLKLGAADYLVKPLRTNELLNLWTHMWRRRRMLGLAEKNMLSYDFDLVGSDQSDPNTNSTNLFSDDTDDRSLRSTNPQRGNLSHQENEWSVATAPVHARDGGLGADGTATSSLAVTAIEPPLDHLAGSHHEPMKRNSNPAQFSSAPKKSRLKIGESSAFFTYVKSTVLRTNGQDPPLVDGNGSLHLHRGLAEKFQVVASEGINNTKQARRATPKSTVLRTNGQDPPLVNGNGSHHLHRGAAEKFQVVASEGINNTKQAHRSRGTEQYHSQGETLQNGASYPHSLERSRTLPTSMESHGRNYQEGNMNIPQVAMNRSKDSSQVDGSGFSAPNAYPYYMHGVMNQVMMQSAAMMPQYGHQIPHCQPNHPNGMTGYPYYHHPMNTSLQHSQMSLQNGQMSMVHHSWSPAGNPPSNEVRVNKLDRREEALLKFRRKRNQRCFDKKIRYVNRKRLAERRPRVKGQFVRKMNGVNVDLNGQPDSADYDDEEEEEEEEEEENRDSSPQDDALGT

[2] = target: T2, AtTZF4 full length, GAL4 DNA binding domain fusion (pAS1 bait) (Arabidopsis thaliana) (UniProt Q9ZWA1); assay: two-hybrid; directed test in yeast PJ69-4A by co-expression of bait (GAL4 BD, pAS1) and prey (GAL4 AD); growth assay
T2 sequence: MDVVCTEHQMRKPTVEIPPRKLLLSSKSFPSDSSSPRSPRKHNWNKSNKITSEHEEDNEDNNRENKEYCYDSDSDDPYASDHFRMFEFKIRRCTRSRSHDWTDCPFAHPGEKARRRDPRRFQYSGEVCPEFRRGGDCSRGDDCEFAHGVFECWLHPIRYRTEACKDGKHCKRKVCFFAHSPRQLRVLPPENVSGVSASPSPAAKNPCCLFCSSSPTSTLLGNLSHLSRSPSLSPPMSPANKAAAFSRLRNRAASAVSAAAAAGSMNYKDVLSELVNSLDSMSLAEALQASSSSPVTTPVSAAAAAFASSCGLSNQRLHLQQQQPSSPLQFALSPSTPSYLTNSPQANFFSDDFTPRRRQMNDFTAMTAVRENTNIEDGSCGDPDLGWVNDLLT

[3] = target: T3, AtTZF6 full length, GAL4 DNA binding domain fusion (pAS1 bait) (Arabidopsis thaliana) (UniProt O65036); assay: as above
T3 sequence: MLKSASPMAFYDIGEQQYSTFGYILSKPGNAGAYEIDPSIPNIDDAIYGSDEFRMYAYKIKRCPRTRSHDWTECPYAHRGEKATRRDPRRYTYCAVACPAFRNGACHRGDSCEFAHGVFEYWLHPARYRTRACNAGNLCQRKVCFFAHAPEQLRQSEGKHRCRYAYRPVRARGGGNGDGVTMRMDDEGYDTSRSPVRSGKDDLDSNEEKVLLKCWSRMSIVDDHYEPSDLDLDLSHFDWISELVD

[4] = target: T4, AtTZF4, BiFC fusion (Arabidopsis thaliana) (UniProt Q9ZWA1); assay: split reporter; BiFC with CYFP and NYFP fusions, paired constructs co-transformed into Arabidopsis protoplasts; YFP fluorescence by microscopy
T4 sequence: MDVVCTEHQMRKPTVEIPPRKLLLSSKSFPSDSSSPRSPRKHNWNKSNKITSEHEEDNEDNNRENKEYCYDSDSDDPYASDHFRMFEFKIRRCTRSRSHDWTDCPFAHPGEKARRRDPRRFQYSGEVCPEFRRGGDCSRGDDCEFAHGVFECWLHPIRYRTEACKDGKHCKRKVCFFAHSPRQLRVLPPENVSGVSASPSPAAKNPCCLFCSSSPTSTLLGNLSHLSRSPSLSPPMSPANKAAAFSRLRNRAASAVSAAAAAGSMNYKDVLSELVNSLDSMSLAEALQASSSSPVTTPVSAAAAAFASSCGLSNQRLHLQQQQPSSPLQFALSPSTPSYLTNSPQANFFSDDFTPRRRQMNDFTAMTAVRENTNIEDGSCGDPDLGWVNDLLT

[5] = target: T5, AtTZF5-CYFP (Arabidopsis thaliana) (UniProt Q9FKW2); assay: as above
T5 sequence: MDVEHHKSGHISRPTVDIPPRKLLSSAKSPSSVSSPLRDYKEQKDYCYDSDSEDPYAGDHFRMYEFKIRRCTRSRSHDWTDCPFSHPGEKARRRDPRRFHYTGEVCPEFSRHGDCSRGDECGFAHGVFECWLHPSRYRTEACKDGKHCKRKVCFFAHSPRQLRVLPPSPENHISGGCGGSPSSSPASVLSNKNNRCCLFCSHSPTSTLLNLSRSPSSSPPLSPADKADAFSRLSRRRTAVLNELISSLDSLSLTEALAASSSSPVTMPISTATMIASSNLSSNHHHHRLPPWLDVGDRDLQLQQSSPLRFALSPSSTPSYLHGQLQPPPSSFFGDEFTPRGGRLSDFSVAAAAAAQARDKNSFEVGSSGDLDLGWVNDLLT

[6] = target: T6, AtTZF6, BiFC fusion (Arabidopsis thaliana) (UniProt O65036); assay: as above
T6 sequence: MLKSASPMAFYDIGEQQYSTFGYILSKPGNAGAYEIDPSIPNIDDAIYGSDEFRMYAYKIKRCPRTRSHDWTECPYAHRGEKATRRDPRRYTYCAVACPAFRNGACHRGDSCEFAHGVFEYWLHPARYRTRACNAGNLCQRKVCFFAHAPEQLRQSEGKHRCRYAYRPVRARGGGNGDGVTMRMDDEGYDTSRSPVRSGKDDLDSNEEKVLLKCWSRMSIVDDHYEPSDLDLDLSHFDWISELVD

[7] = target: T7, bZIP1-CYFP (Arabidopsis thaliana) (UniProt Q9FGX2); assay: as above
T7 sequence: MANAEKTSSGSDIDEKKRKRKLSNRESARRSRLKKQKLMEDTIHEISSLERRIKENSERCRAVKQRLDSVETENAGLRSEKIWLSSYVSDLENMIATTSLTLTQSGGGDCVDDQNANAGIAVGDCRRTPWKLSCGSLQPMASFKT

[8] = target: T8, GA stimulated Arabidopsis 6 (GASA6), GFP-tagged (Arabidopsis thaliana) (UniProt Q6NMQ7); assay: co-IP; GFP-tagged and HA-tagged proteins co-expressed with p19 in N. benthamiana leaves by agroinfiltration; anti-GFP antibody on protein A Sepharose, 2 h at 4°C; co-IP products detected with anti-HA antibody
T8 sequence: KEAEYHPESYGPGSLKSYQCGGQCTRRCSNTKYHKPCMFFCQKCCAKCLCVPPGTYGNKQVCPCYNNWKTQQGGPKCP

B1: MARD1-NYFP (protein, UniProt Q8LGS1 1-263)
chain: MLRNKPRAAVTTKKQTSLLMADQPPPPKPNTCHCSPSLFSSPKFRFFTSKMMMTPFDSDFSLVSPTSILEANPSIFSSKNPKPVSYFEPTIPNPQRFHSPDVFGLADLVKDGDSNRDHSRKPVNKMVLFGSKLRVQIPSSADFGTKTGIRYPPCQLSPCVQTKVLAVSEIDQTEDYTRVISHGPNPTITHIFDNSVFVEATPCSVPLPQPAMETKSTESFLSRCFTCKKNLDQKQDIYIYRGEKGFCSSECRYQEMLLDQMET
binding [4]: binds | binding [5]: binds | binding [6]: binds

B2: Mediator of ABA-Regulated Dormancy 1 (MARD1) full length, GAL4 activation domain fusion (pAD-GAL4-2.1 prey) (protein, UniProt Q8LGS1 1-263)
chain: MLRNKPRAAVTTKKQTSLLMADQPPPPKPNTCHCSPSLFSSPKFRFFTSKMMMTPFDSDFSLVSPTSILEANPSIFSSKNPKPVSYFEPTIPNPQRFHSPDVFGLADLVKDGDSNRDHSRKPVNKMVLFGSKLRVQIPSSADFGTKTGIRYPPCQLSPCVQTKVLAVSEIDQTEDYTRVISHGPNPTITHIFDNSVFVEATPCSVPLPQPAMETKSTESFLSRCFTCKKNLDQKQDIYIYRGEKGFCSSECRYQEMLLDQMET
binding [2]: binds | binding [3]: binds

B4: DCP5, GAL4 activation domain fusion (protein, UniProt Q9C658 1-611)
chain: MAADNTGSKSSSAADSYVGSLISLTSKSEIRYEGILYNINTDESSIGLQNVRSFGTEGRKKDGPQVPPSDKVYEYILFRGTDIKDLQVKASPPVQPPASTINNDPAIIQSHYPSPMPTSGSLPSTASGSLPDISSHNGQPGQHGMGFQNAMPLYQPGGNLGSWGASPQPPMYWQGFYTPPPNGLPQLHQQSLIRPPHGLPMPNSLQQPLQYPNFNTPPPPTGSSSLQGSSLPEAPSSLFPFSTSSQMLAPSSLPFPGLPPVTLSSSLQSTLQSAPSPSLASEMAPPLLSNKAPITAPPTLPQDTNLLSFSLSTTRATEASTGLPLSNKPSVVTGPISPPQTTPLTSAPVAGVSSSISQDKPKPLLVTPGQLLQSGSSAVSLSPPSTNADKDVEVVQVSSSAGLEQSVPVTSEAQPPILPLPSSARPTQKPNGHSFPNHNGYRGRGRGRGRGAGRSHQVMKFTEDFDFTAMNEKFNKDEVWGHLGKSTTLDGDEDDDSPTVDEAELPKIEAKPVYNKDDFFDSLSSNTIDRESQNSRPRFSEQRKLDTETFGEFSRFRGGRGGRGGYGRNNGYSRGGYGGRGYGGYGGRGGGGGGYGYGGRGQGRGVSNRTT
binding [2]: no binding | binding [3]: no binding

B6: AtMARD1 full length, HA-tagged (pGWB15) (protein, UniProt Q8LGS1 1-263)
chain: MLRNKPRAAVTTKKQTSLLMADQPPPPKPNTCHCSPSLFSSPKFRFFTSKMMMTPFDSDFSLVSPTSILEANPSIFSSKNPKPVSYFEPTIPNPQRFHSPDVFGLADLVKDGDSNRDHSRKPVNKMVLFGSKLRVQIPSSADFGTKTGIRYPPCQLSPCVQTKVLAVSEIDQTEDYTRVISHGPNPTITHIFDNSVFVEATPCSVPLPQPAMETKSTESFLSRCFTCKKNLDQKQDIYIYRGEKGFCSSECRYQEMLLDQMET
binding [8]: no binding

Results, then the molecule that gave them:

binding [1]: binds
Molecule: ZTL-HA (from UniProt Q94BT6 1-609)

binding [2]: binds | binding [3]: binds
Molecule: Responsive to Dehydration 21A (RD21A) full length, GAL4 activation domain fusion (pAD-GAL4-2.1 prey) (from UniProt P43297 1-462)

binding [7]: binds
B3: bZIP25-NYFP (protein, UniProt Q9M1G6 1-403)
chain: MHIVFSVDDLTESFWPVPAPAPSPGSSSTPSPTQNVADGMTRSQSEWAFHRLINELSGSDSSPTTNTIERSPPPVQSLSRLEETVDETEDVVEIQKPQNHRRLPVDDQGKNRNRAPSSDPVDSSAPVVVDPNQYHAILKSKLELACAAVARRVGTVKPEDSSASASNQKQAQGSIVAQTSPGASSVRFSPTTSTQKKPDVPARQTSISSRDDSDDDDLDGDADNGDPTDVKRARRMLSNRESARRSRRRKQEQMNEFDTQVGQLRAEHSTLINRLSDMNHKYDAAAVDNRILRADIETLRTKVKMAEETVKRVTGVNPLHWSRPNMGIPFSNTPSASSSIPPNSNHILKPANSSTNTSAGLAQNQRVETANFLPEQVNREGMQNPFAPDSNLYETLPHWNHKH

binding [2]: no binding | binding [3]: no binding
B5: polyA-binding protein PABP8, GAL4 activation domain fusion (protein, UniProt Q9FXA2 1-671)
chain: MAQIQHQGQNANGGVAVPGAAAAEAAAAAAGAAAAAAGAAQQGTTSLYVGDLDATVTDSQLFEAFTQAGQVVSVRVCRDMTTRRSLGYGYVNYATPQDASRALNELNFMALNGRAIRVMYSVRDPSLRKSGVGNIFIKNLDKSIDHKALHETFSAFGPILSCKVAVDPSGQSKGYGFVQYDTDEAAQGAIDKLNGMLLNDKQVYVGPFVHKLQRDPSGEKVKFTNVYVKNLSESLSDEELNKVFGEFGVTTSCVIMRDGEGKSKGFGFVNFENSDDAARAVDALNGKTFDDKEWFVGKAQKKSERETELKQKFEQSLKEAADKSQGSNLYVKNLDESVTDDKLREHFAPFGTITSCKVMRDPSGVSRGSGFVAFSTPEEATRAITEMNGKMIVTKPLYVALAQRKEDRKARLQAQFSQMRPVNMPPAVGPRMQMYPPGGPPMGQQLFYGQGPPAMIPQPGFGYQQQLVPGMRPGGSPMPNFFMPMMQQGQQQQQQQQQQQRPGGGRRGALPQPQQPSPMMQQQMHPRGRMYRYPQRDVNTMPGPTQNMLSVPYDVSSGGGVHHRDSPTSQPVPIVALATRLANAAPEQQRTMLGENLYPLVEQLEPESAAKVTGMLLEMDQTEVLHLLESPEALKAKVTEAMDVLRSVAQQQAGGAADQLASLSLGDNIVP
